Read counts are not given, so values of variants with three or more changes are uncertain.

The chains are these.
B1: CPEB3 Ribozyme (parent)
chain: UAACAGGGGGCCACAGCAGAAGCGUUCACGUCGCAGCCCCUGUCAGAUUCUGGUGAAUCUGCGAAUUCUGCUGUAUAUCUC

In the data set the parent is B1. As to the kind of experiment: self-cleavage, relative activity (ratio to wild type); higher = more cleavage; in vitro, sequencing. In short, it runs like this:
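Barcoded CPEB3 ribozyme mutants, produced by rounds of error-prone PCR, self-cleaved while being transcribed with T7 RNA polymerase for 5 hours at 37°C and during a subsequent 15 min DNase I step before EDTA was added. Sequencing of template-switched cDNA on Illumina gave cleaved and total reads, and DNA sequencing assigned barcodes to variants. Each variant's relative activity is its cleaved/total read fraction divided by the unmutated ribozyme's fraction, averaged across three batches. A variant needed a minimum of 5 reads.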
With UAGCAGGGGGCCGCAGCAGAAGCGUUCACGUCGCAGCCCCAGUCAGAUUCUGGUGAAUCUGCAAAUUCUGCUGUAUAUCUC, the self-cleavage was 0.24.

As for UAGCUGGGGGCCACAGCAGAAGCGUUCACGGCGCAGCCCCCGUCAGAUUCUGGUGUAUCUGCGAGUUCUGCUGUAUAUCUC, the self-cleavage is 0.29. The figure for UAGCAGGGGGCCCCAGCAGAAGCGUUCACGUCGCAGCCCCUGUCAGAUUCUGGUGAAUCUGCGAAUUCUGCUGUAUAUCAC is 1.09. For the variant UAGCAGGGGGCCGCAGCAGAAGCGUUCACGUCGCAGCUCCUGCCAGAUUCUGGCGAAUCUGCGAAUUCUGCUGUAUAUCCC, the self-cleavage came out at 0.18. For UAGCGGGGGGCCACAGCAGAAGCGUUCACGUCGCCGCCCCUGUCAGAUUCUGGUGAAUCUGCGAAUCCCGCUGUAUAUCUC, the self-cleavage worked out at 0.46.

As for UACCAGGUGGCCACAGCAGAAGCAUUCACGUCGCAGCCCCUGUCAGAUUCUGGUGACUCUCCGAAUUCUGCUGUAUAUCUC, the self-cleavage turned out to be 0.06. Then UAGCAGGGGGCCGCAGCAGAAGCGUUCACGACGCAGCCCCUGUCAGAUUCUGGUGAAUCUGCGAAUUCUGCUGUAUAUCUC, with 0.74; and UAGCAGGGGGCCGCAGCAGAAGCGUUCACGUCUCAGCCCCUGUCAGAUUCUGGUGAAGCUGCGAAUUCUGCUGUAUAUCUC, with 0.1.

On to UAGCAGGGGGCCGCAGCAGAAGCGUUCACGUCGCAGCCCCUGUCAGAUUCUGGUGAAUCUGCGAAUUCUACUGUAUACCUC, for which the self-cleavage came out at 0.22. The figure for UACCAGUGGGCCUCAGCAGAAGCGUUCACGUCGCAGCCCCUGCCAGAUUCUGGUGAAUCUGCGAAUUCUGCUGUAUAUCUC is 0.38; for UAGCGGGGGGCCACAGCUGAAGCGAUCACGUCGCAGCCCCUGUCAGAUUCUGGUGAAUCUGCGAAUUCUGCGGUAUAUCUC it is 0.07. With UAGCAGGGGGCCGCAGCAGAAGUGUUCACGUCGCAGCCCCUAUCAGAUUCUGGUGAAUCUGCAAAUCCUGCUGUAUAUCCC, the self-cleavage was 0.07.

With UAGCGGGGGGCCACAGCAGAAGCGUUCACGUCGCAGUCCCUGUCAGAUUCUGGCGAAUCUGCGAAUUCUGCUGUAUAUCUC, the self-cleavage turned out to be 0.51. Then UACCAGGGGGCCACAACAGAAGCGUUCGCGUCGCAGCCCCUGUCAGAUUCUGGUGAAUCUGCGAAUUCUGCUGUAUAUCUC, with 0.44. For the variant UAGCGGGGGGCCACAGCAGAAGCGUACACGUCGUAGCCCGUGUCAGAUUCUCGUGAAUCUGCGAAUUCUGCCGUAUAUCUC, the self-cleavage came to 0.1. On to UAGCGGGGGGCCACAGCAGAAGCGUUCACGUCGCAGCCCCUGUCAGAUUCUGGUGAAUCUGCGAAUUCUGCUGUACACCUC, for which the self-cleavage is 0.62. The figure for UAGCAGGGGGCCGCAGCUGAAGCGUUCACUUCGCAGCCCCAGUCAGAUUCUGGUGAAUCUGCGAAUUCUGCUGUAUAUCUC is 0.51. Regarding UACCAGGGCGCCACAGCAGAAGCGUUCACGUCGCAGCCCCUGUCAGAUUCUGGUGAAUCUCCGAAUUCUGCUGUAUACCUC, the self-cleavage came out at 0.14.

UAGCAGGGGGCCCCAGCAGAAGCGUUCACGUCGCAGCCCCUGUCAGAUCCUGGUGAAUCUGCGAAAUCUGCUGAGUAUCUC: the self-cleavage stood at 0.18. The figure for UAGCGGGGGGCCACAGCAGAAGCGUUCACGUCGCAGCCCCCGCCAGAUUCUGGCGAAUCUGCGGAUUCUGCUGUAUAUCUC is 0; for UAGCAGGGGGCCGCAGCAGAAGCGUCCACGUCGCAGCCCCUGUCUGAUUCUGGUGACUCUGCGAAUUCUGCUGUAUAUCUC it is 0.47; for UAGCGGGGGGCCACAGCAGAAGCGUUCACGUCGCAGCCCCUGUCAUAUUCUGGUGAAUCUGCGAAUUCAGCUGUAUAUCUC it is 0.29.

For UAGCGGGGGGCCACAGCAGAAGCGUUCACAUCGCAGCCCCUGUCAGAUUCUGGUGAAUCUGCGAAUUCCGCUGUAUAUCUC, the self-cleavage was 0.4. Turning to UAGCGGGGGGCCACAGCAGAAGCGUCCACGUCGCAGCCCCUGUCAGAUUCUGGUGAAUCUGCGAAUUCUGCUGUACAACUC, the self-cleavage worked out at 0.24. UAGCGGGGGGCCACAGCAGAAGCGUUCACGUCGCAGCCCCUGUCAGAUUCUGGCGGAUCUGCGAAUUCUGCCGUAUUUUUC: the self-cleavage was 0.54. In the case of UAGCUGGGGGCCUCAGCAGAAGCGUACAUAUCGCAGCCUCUGUCAGAUUCUGGUGAAUCUGCGAAUUCUGCUGUAUAUCUC, the self-cleavage is 0.2.

As to UAGCAGGGGGCCGCAGCAGACGCGUUCACGUCGCAGCCCCUGUCAGACUCUGGUGAAUCUGCGAAUUCUGCUGUAUAUCAC, the self-cleavage came to 0.13. On to UACCAGGGGGCCACAGCAGAAGCGUACACGUCGCAGCCCCUGUCAGAUUCUGGUGAAUCGGCGUAUUCUGCUGUAUAUCUC, for which the self-cleavage was found to be 0.4.

Consider UAGCAGGGGGCCGCAGCAGAAGCGUUCACGUCGCAGCCCCAGUCAGAUUCUGGUGAAUCUGCGAAUUCUGCUGUAUAUCUC, for which the self-cleavage is 0.59. Then UAGCUGGGGGCCACAGCAGGAGCGUCCACGCCGCAGCCCCUGUCAGAUCCUGGUGAAUCUGCGAAUUCUGCUGCAUAUCUC, with 0. The figure for UAGCUGGGGGCCACAGCAGAAGCGUUCACGUCGCAGCCCCUGUCAGAUUCUGGUGAGUCUGCGAAUUCUGCUGUAUAUCUC is 0.92; for UAGCUGGGGGGCACAGCGGAAGCGUUCGCGUCGCAGCCCCUGUCAGAUUCUGGUGAAUCUGCGAAUUCUGCUGUAUAUCUC it is 0.14; for UAGCCGGGGGCCACAGCGGAAGCAUUCACGUCGCAGCCCCUGUCAGAUUCUGGUGAAUCUGCGGAUUCUGCUGUAUAUCUC it is 0.11. Then UACCAGGGGGCCACAGCAAAAGCGUCCACGUCGCAGCCCCUGUCAGAUUCUGGUGAAUCUGCGAAUUCUGCUGUAUAUCUC, with 0.63.

These data come from the RNAGym collection of RNA variant scans (doi:10.1093/nar/gkz1192).
